The supplement of paper PMC10126150
Sequences with one replicate were seen in a single cluster, so their values are uncertain.

Test system: ATP
Test: switch fluorescence ratio, 500 uM ATP over buffer (Cy3 cluster intensity, sum of 5 cycles each) (fold (ratio)); higher = stronger signal-on switching upon ATP binding; sequences stand for … in TCGTCGGCAGCGTCAGATGTGTATAAGAGACAGTTTTTTTTTTTTTTTTTTTTTTTTT…TC
Conditions: aptamer strand: ATP DNA aptamer (quencher-CACCTGGGGGAGTATTGCGGAGGAAGG + anchor), 100 nM annealed; ATP concentration: 500 uM; one replicate
Procedure, shortened: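 Imaging in selection buffer was followed by imaging after 15 min with 500 uM ATP at 22 °C, for Cy3-labelled switching-strand clusters annealed to 100 nM quencher-labelled ATP aptamer on a modified Illumina MiSeq flow-cell. Five of these buffer/ATP cycles ran, separated by NaOH stripping and re-annealing. The fluorescence ratio per cluster is summed target-cycle over summed buffer-cycle Cy3 intensity, averaged per switch-domain sequence; clusters outside 100-1000 RFU were removed.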
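Further: ATP exposure 15 min at 22 °C before imaging.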

Sequence | switch fluorescence ratio
ATTTTAAAGT | 1.03
GCTCTGATAG | 1.07
ACCTCACCGG | 1.29
TCCAACAATA | 1.31
CAAGAGATTT | 0.978
ACGAAACAGT | 1.09
ATCAATTTTC | 0.972
GTTTTTCATG | 0.99
TTGCCTTTCA | 1.03
TGTGCCGGGG | 0.962
TGACGAACAT | 1.3
ATAATAAAAC | 0.967
ACCCTTAACG | 1.04
CCGAATAGTG | 1.08
TAGCTGAA | 0.995
TCCGGACTTT | 0.995
AAGTCGCGGC | 0.982
GTTCAAAGTT | 0.984
ATGATGTCAT | 1.02
GTAGGGTCTG | 0.994
GGGGTCGACT | 1.08
CCGATGTTGT | 1.53
GGAGATTGTT | 1.03
AACTAGCACT | 1.04
CATATCAATG | 1.01

Sequence | switch fluorescence ratio
CAAACGTCTA | 1.03
ACGTTTGAGA | 1.03
TATTTCAGGC | 1.01
GATAAAGTGT | 1.02
CGCTCTGTGT | 1.02
CGAGCAGGAG | 1.96
GGCGCGGTCG | 0.923
GGGTGCAAAT | 0.968
GCCAACTTCT | 0.975
AGCCTCGGCC | 0.998
AAGTCGGTAA | 0.994
ATAGGTTATT | 0.983
GTCTCATTTT | 1.02
GTTTGAAGGA | 0.956
CGTCCGGGGC | 3.36
ATTTACGCGC | 1.01
TCGTGATTCG | 1.03
AAAAGTATAG | 1.11
GGGTGCTGAC | 0.956
CAATAAGGG | 0.983
AGACTGTCCC | 1.03
GAAAATTATC | 1
GAGCACTCGG | 1.01
ATGACTGGTG | 1.03
GGAAGCTGAT | 0.992

Sequence | switch fluorescence ratio
ACATGGTGCC | 1.03
GATGACCGGT | 0.992
GTTTCAGGC | 1.04
TTGCGTCAC | 1.03
TCAGGCGATG | 0.995
TCGTACAAGG | 1.04
AGTCATCCCG | 1.03
ATAGACATCT | 0.986
AGGTATGTCC | 1.05
GGATAGATCC | 1.01
ACGGAGAGC | 1.09
AGTTGATAGC | 0.962
CAGCTTCGAA | 0.989
CCCGTGAAGG | 1.05
ATTACAAGCC | 1.01
CAACTGGAAA | 0.993
AAGAGGTGGT | 0.938
GTTTAAATCA | 0.996
GGCGAGGTGC | 0.993
GTATTATTAG | 1.02
ATGCAAAAGT | 1.07
AATCGCGGTT | 1.02
ATGTTGTAAT | 0.986
ATTTGTGGTA | 0.997
CAGGCCCTCT | 1.02

Sequence | switch fluorescence ratio
CCAGTCGCG | 1
GTCATCCTGG | 1.04
TGAAAGGATG | 0.986
CACAGGACTT | 1.09
GGGAAGAGTC | 0.986
ATCCAGTTCT | 0.991
AAGATCATTT | 0.996
CTTATTGTCT | 1.02
GTGACATCAT | 0.995
TCCACGTAAA | 1.68
CGTGGTCGGG | 0.963
CCATTCCGGC | 1.21
CACGTGGTTT | 0.995
TGGAGAAAT | 3.31
CAAGTGATAC | 3.73
GCCGGCGGAC | 1.01
GGTTACATTT | 1.03
CCACGTCAGC | 1.17
ATATGTTAGC | 1.02
CTGGCCTGTG | 0.987
TGCTGGAGAG | 0.997
TTCTACGCCT | 1.74
AGACATTATG | 1.06
CAATGGGGAC | 0.996
CATGTGGATA | 0.975

Sequence | switch fluorescence ratio
TCTCTCGTGC | 1.31
CAGCTTTGAC | 1.16
TAGGCTTAAA | 1.01
AACGTAAGT | 1.04
AGGTTTTGAA | 0.991
CGATGGCGGA | 1.08
TCGACCCTGG | 1.11
TATTATCTCC | 1.02
CATATAAATG | 1.02
CAAGCAAAA | 1.14
TACAATTAAA | 0.997
AATTATCAAC | 1.01
ACCTACGTCT | 1.14
CGGGTGACAA | 1.01
ACACCGCTAA | 4.78
TGTACGGACT | 1.29
ACCCATATGT | 1.07
GACCTGGTAT | 0.988
GAGCTTGATA | 1.04
ACCTCCAGGG | 1.17
GCGAGCTT | 0.982
CGGCTTGTGG | 0.99
ATTCGCCCAG | 1.62
ATTGGCCTGG | 1
TAGAAGACTT | 1.01

Sequence | switch fluorescence ratio
TCGGTCAGTC | 1.02
GATTCCTGGT | 1.04
GCTCACAGGC | 1.09
TGTCAGGCAA | 1.09
GCGTTTCGGC | 0.984
TCTGGTTTCC | 1.04
AGGGACCGAT | 0.986
ACTAGTCTGC | 0.998
TCCTAACAGT | 1.02
AAGGGGTCAA | 1.05
TCCGACTTGC | 1.84
ATGGCATGTG | 0.981
ATACTACAC | 1.3
CCGATATCTT | 1.02
CTGTGTAACA | 0.978
ACACCTGAGC | 1.11
CCTCGAATGG | 1.47
TCGCTGTATC | 0.977
ACCGGGGCTG | 1.01
GTTACGCTAT | 1.28
GGATGGCGTC | 0.984
GGTATCCATC | 1
TTGGGTCCG | 0.992
GCAACGGCTA | 1.04
GTTTGCACAG | 0.999

Sequence | switch fluorescence ratio
TACACATACC | 1.53
TTATGGGTGG | 0.997
CCTAAAACGA | 1.3
TCAGTCATAG | 1.05
AACCTAAACC | 1.15
GAGGATAACA | 0.994
AGGAAGGCTT | 1.08
AATCGGTCCC | 1.02
TCAATCTTCG | 1.12
CGCTTAATGA | 1.11
GGATTTCCAT | 0.99
TAAATGACGC | 1.12
TGCTCGCTAG | 0.992
TAGCAACAAA | 1.03
CTATTCCCTT | 0.973
CCATGGTTAG | 0.991
CTACTGGGTT | 0.99
TGAATGCTCT | 1.03
TAGAATTCGA | 1.05
AATACGCGCT | 1.01
CACTGGCAAT | 2.81
AAAGGGTTCA | 0.992
CCATGGTCTC | 0.999
TATCACGTTC | 1.04
AGCGGAAAAT | 1.03

Sequence | switch fluorescence ratio
GGGGCATTA | 1.05
TACGATGCTG | 1.07
GTAGCTTGAA | 1.01
TTTAACTTCG | 0.994
TCGGACTACT | 1.13
CGTGGGGCTG | 1.12
TGACGTTTAG | 1.04
CGAGCGCGAG | 0.991
TTGTATGCAA | 1.04
AGGGTGCGGT | 0.968
ACTAGTTCAT | 0.985
AAGCCTTTGT | 1.02
TCGTGTGTGG | 0.943
TTAGGGCTTC | 0.955
AAAGGAAAGC | 1.05
GCTGGCTTGT | 0.98
TAATGACAAT | 0.984
GCTATGTAAG | 0.985
AGCAACTGGG | 1.14
CACCTTTGGG | 0.976
GTGTCCCCTA | 0.977
GCATAGCCCG | 1.03
TTCTTGTAAA | 0.956
AGATTTAAGC | 1
AACGAGTTCC | 1.04
